# Experimental data as given in PubChem BioAssay AID602310 (National Center for Advancing Translational Sciences (NCATS), 2012).
# About 310 (0.076%) of roughly 410,000 compounds were called active. Inconclusive results, whose numbers are uncertain, are shown with a selection of clear calls. Calls follow the shape of the dose curve; as a rule, active = well fitted curve in the direction sought with a large enough effect; inconclusive = small, poorly fitted or top-dose-only effect; inactive = flat fitted curve, though single readings scatter. A potency beside an inconclusive call is a rough fit, not a confirmed value.
# Molecular target: DNA dC->dU-editing enzyme APOBEC-3G (Homo sapiens) (UniProt Q9HC16)
# Experiment: qHTS for Inhibitors of Vif-A3G Interactions: qHTS; also: nearly all actives have a fitted effect of over 60% in size
# Conditions: HeLa A3G-eYFP + Vif (tagged APOBEC3G with the HIV-1 protein that degrades it), YFP fluorescence, overnight; series mostly up to 46.1 µM
# Procedure, shortened: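 HeLa cells stably expressing Vif and C-terminally eYFP-tagged A3G, seeded overnight at 37 deg C, then exposed to compound by pintool overnight at 37 deg C. Rise in yellow fluorescence (Ex 488/Em 500-530, Acumen) marks blocked Vif-driven A3G degradation.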
# Potency is read from the fitted curve at half-maximal effect; tags tell the direction and shape of the fitted curve.
# UniProt Q9HC16, sequence (Q9HC16 whole entry, looked up): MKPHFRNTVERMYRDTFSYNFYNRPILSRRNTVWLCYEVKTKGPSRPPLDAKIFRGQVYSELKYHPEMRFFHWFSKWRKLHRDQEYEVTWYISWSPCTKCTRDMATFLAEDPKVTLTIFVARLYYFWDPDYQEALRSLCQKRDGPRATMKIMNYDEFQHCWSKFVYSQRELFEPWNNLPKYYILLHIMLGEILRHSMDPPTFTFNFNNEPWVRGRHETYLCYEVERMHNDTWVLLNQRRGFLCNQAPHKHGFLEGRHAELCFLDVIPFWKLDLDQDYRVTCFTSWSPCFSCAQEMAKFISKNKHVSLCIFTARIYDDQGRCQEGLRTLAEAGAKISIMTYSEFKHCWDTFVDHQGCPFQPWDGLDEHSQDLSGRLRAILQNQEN
row,SMILES,Potency
1,COc1cccc(CNC(=O)C(=O)NCCC2CCCCN2S(=O)(=O)c2ccc(C)cc2)c1 (stereo unspecified),"inconclusive: 11.2 µM [inhibitor, single point]"
2,C=CCn1c(SCC#N)nc2ccc(Cl)cc2c1=O,inactive
3,COc1ccc(-c2nc3cc(C(C)C)ccc3o2)cc1NC(=O)c1ccccc1[N+](=O)[O-],"inconclusive: 8.91 µM [inhibitor, partial curve, poor fit]"
4,CCCN1C(=O)/C(=C\C=C2\N(CC)c3ccccc3C2(C)C)SC1=S,"inconclusive: 2.51 µM [inhibitor, full curve, poor fit]"
5,COc1ccc(NS(=O)(=O)c2cc(NC(=O)c3ccccc3)ccc2N2CCOCC2)cc1,"inconclusive: 35.5 µM [inhibitor, single point]"
6,O=C(Nc1ccccc1)N1CCC(c2nc(-c3ccc(S(=O)(=O)N4CCOCC4)cc3)no2)CC1,"inconclusive: 11.2 µM [inhibitor, partial curve]"
7,COCCNC(=O)c1ccc2c(=O)n(CCc3ccccc3)c(SCC(=O)CC(=O)OC)nc2c1,inactive
8,CC(=O)c1ccc(NS(=O)(=O)c2cc(-c3cnc(C4CC4)o3)ccc2C)cc1,"inconclusive: 3.55 µM [inhibitor, full curve, poor fit]"
9,Cc1ccc(N=C/C(C(=O)C(F)(F)F)=C(\O)c2ccco2)cc1Cl,"inconclusive: 17.8 µM [inhibitor, single point]"
10,CCCCc1cc(=O)oc2cc(C)c3c(C)coc3c12,inactive
11,COc1cccc(CN2CCC2(C)C(=O)Nc2cccc(Oc3ccccc3)c2)c1F (stereo unspecified),"inconclusive: 1.58 µM [inhibitor, full curve, poor fit]"
12,O=C(COc1ccc(Cl)cc1)Nc1ncc([N+](=O)[O-])s1,inactive
13,C#CCOCCOCCOCCNc1nc(N2CCN(C(=O)CCCCCCCCCCNC(=O)[C@H]([C@@H](C)CC)n3cc(CCCCN=C(N)N)nn3)CC2)nc(N2CCN(C(=O)CCCCCCCCCCNC(=O)[C@H](CO)n3cc(CCCSC)nn3)CC2)n1,"inconclusive: 15.8 µM [inhibitor, single point]"
14,CCSc1nc2ccccc2n1C(=O)/C=C\c1ccc(OC)c(OC)c1,"inconclusive: 7.94 µM [inhibitor, partial curve]"
15,O=C(O)CN1C(=O)/C(=C\C(Br)=C\c2ccccc2)SC1=S,"inconclusive: 25.1 µM [inhibitor, single point]"
16,CCOC(=O)c1ccc(NC(=O)c2c(NCc3cccs3)sc3c2CCCCC3)cc1,"inconclusive: 22.4 µM [inhibitor, single point]"
17,COc1ccc(C2=NO[C@@H]3C(=O)N(c4ccc(C)cc4C)C(=O)[C@H]23)cc1OC,inactive
18,Oc1ccc(-c2csc(Nc3ncccn3)n2)cc1O,"inconclusive: 35.5 µM [inhibitor, single point]"
19,COc1ccc(C(=O)Nc2cc(-c3cccc(C)c3)nn2-c2ccccc2)cc1,inactive
20,CCOc1ccc(NC(=O)N2CC=C(c3c[nH]c4ccccc34)CC2)cc1,"inconclusive: 11.2 µM [inhibitor, partial curve, poor fit]"
21,O=C(O)c1ccccc1NC(c1ccccc1)c1ccc2cccnc2c1O (stereo unspecified),"inconclusive: 22.4 µM [inhibitor, single point]"

row,SMILES,Potency
1,Cc1ccc(C)c(NC(=O)Cn2cc(C(=O)C3CCCCC3)c3ccccc32)c1,"inconclusive: 28.2 µM [inhibitor, single point]"
2,Cc1cccc(OCC(=O)Nc2ccc(O)c(-c3nc4ccccc4o3)c2)c1,inactive
3,Cc1cccc(N2CCN(C(=O)c3ccc4c(c3)CCN4S(C)(=O)=O)CC2)c1C,inactive
4,C=CCN1C(=O)c2ccc(C(=O)N(CC(C)C)c3c(N)n(CCCC)c(=O)[nH]c3=O)cc2C1=O,active: 7.94 µM
5,COc1ccc(C2=CC(=O)OC(C)(c3ccccc3)O2)cc1 (stereo unspecified),"inconclusive: 15.8 µM [inhibitor, single point]"
6,O=C(Nc1ccccc1)C1=C[C@H](c2ccc(C(F)(F)F)cc2)C[C@H](OCc2ccc(CO)cc2)O1,inactive
7,CCC/C(C#Cc1ccsc1)=C1/c2ccccc2C(=O)N1c1ccccc1,"inconclusive: 25.1 µM [inhibitor, single point]"
8,CC(=O)c1ccc(Nc2nc(-c3sc(C)nc3C)cs2)cc1,"inconclusive: 0.891 µM [inhibitor, full curve, poor fit]"
9,Cc1ccsc1/C=N\NC(=O)c1n[nH]c2c1CCC2,"inconclusive: 7.08 µM [inhibitor, partial curve]"
10,O=C1CSC(c2ccc(Cl)cc2)N1c1cccnc1 (stereo unspecified),inactive
11,O=C1NC(=Nc2ccc(O)cc2)S/C1=C/c1ccco1,active: 11.2 µM
12,CC(=O)Nc1cccc(-c2cc(NC(C)=O)c3ncc(-c4cccc(C(C)=O)c4)n3c2)c1,"inconclusive: 25.1 µM [inhibitor, single point]"
13,Cc1ccc(OCC(=O)N/N=C\c2ccc(C)o2)c([N+](=O)[O-])c1,"inconclusive: 22.4 µM [inhibitor, single point]"
14,Cc1ccc(C(C[N+](=O)[O-])c2c(C)cc3ccccn23)cc1 (stereo unspecified),"inconclusive: 35.5 µM [inhibitor, single point]"
15,COc1ccccc1NC(=O)CSc1nnc(CC(=O)Nc2ccccc2)n1C,inactive
16,Nc1c(Cl)cc(C2=NCCn3nc4ccccc4c32)cc1Cl,"inconclusive: 10 µM [inhibitor, partial curve, poor fit]"
17,O=C(C[n+]1cc(Br)cc2ccccc21)c1ccccc1,"inconclusive: 22.4 µM [inhibitor, single point]"
18,CCOc1ccc(NC(=O)Cn2c(=O)n(CCCCC(=O)NCc3ccc4c(c3)OCO4)c(=O)c3ccccc32)cc1,"inconclusive: 11.2 µM [inhibitor, partial curve]"
19,Cc1c(CN2CCC(CO)(CCOc3ccccc3)CC2)[nH]c2ccc(Cl)cc12,"inconclusive: 14.1 µM [inhibitor, single point]"
20,COc1cccc(CNC(=O)CN2C(=O)N(c3cccc(Cl)c3)S(=O)(=O)c3ccccc32)c1OC,inactive
